The campaign covered roughly 220,000 compounds. About 16,000 (7.3%) were called active. The shares of active, inactive and inconclusive entries below differ from those in the screen. Calls come from the whole dose curve; as a rule, active = well fitted inhibition curve with a large enough effect (not every such curve was filed as active); inconclusive = small, poorly fitted or top-dose-only effect, or another doubt; inactive = no such curve, though single readings can be large or run the other way. No potency is given beside an inconclusive call; the fits are too rough.
molecular target: Aldehyde dehydrogenase 1A1 (Homo sapiens) (UniProt P00352); assay: qHTS Assay for Inhibitors of Aldehyde Dehydrogenase 1 (ALDH1A1); conditions: Purified ALDH1A1, NADH fluorescence, propionaldehyde substrate; series mostly up to 75.3 µM; activity, negative = inhibition: at the top concentration;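 for activity, negative = inhibition: plate controls were no enzyme wells and a reference inhibitor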
Potency is the fitted concentration of half-maximal effect; tags give direction and shape of the fitted curve.

Chain of UniProt P00352 (P00352 whole entry, looked up): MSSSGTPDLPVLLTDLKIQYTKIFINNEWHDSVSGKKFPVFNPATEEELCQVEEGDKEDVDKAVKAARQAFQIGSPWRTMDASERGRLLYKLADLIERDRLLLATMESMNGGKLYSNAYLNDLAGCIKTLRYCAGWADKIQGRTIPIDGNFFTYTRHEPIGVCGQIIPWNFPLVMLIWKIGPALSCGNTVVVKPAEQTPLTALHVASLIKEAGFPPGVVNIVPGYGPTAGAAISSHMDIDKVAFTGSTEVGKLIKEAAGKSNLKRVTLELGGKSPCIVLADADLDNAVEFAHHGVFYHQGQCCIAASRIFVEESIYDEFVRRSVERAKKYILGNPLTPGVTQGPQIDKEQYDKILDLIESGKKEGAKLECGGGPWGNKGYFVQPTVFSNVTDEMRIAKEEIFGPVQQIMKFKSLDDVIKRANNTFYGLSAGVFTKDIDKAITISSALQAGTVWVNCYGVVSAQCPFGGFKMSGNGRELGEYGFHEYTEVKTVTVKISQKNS

| Structure (SMILES) | activity, negative = inhibition | Potency |
| --- | --- | --- |
| COc1nc(OC)nc(N2CCCCCC2)n1 | inactive: 4.73% | – |
| CC(c1ccc(F)cc1)n1c(Cn2ncc3ccccc3c2=O)n[nH]c1=S (configuration not stated) | inactive: -2.13% | – |
| COC(=O)c1ccc[n+](CC(=O)Nc2ccc(OC(F)F)cc2)c1 | – | inconclusive [inhibitor, single point] |
| COc1cc(COCC(O)CN2CCOCC2)cc(OC)c1OC (configuration not stated) | – | inconclusive [inhibitor, single point] |
| CCN(CC)CCNC(=O)c1ccc(NC(=O)COc2ccccc2F)cc1 | inactive: -9.93% | – |
| Cc1c(NC(=O)c2ccc(N(Cc3ccccc3)S(C)(=O)=O)cc2)c(=O)n(-c2ccccc2)n1C | inactive: 11.5% | – |
| CCC(Sc1nc(-c2ccccc2)c(C#N)c(=O)[nH]1)C(=O)Nc1nnc(C)s1 (configuration not stated) | – | inconclusive [inhibitor, single point] |
| NC(=O)C1CCN(CC(=O)NC2CCCc3ccccc32)CC1 (configuration not stated) | inactive: 13.6% | – |
| Cn1c(Cn2c(=O)sc3ccccc32)nnc1SCC(=O)Nc1ccc(F)cc1 | – | inconclusive [inhibitor, single point] |
| CCN=c1sc(C(=O)Nc2ccccc2)c(C)n1CC | inactive: -2.58% | – |
| Cc1ccc(-n2cc[nH]c2=S)cc1C | – | inconclusive [inhibitor, single point] |
| CC1=NN(c2nc(-c3ccc(C)cc3)cs2)C(=O)C1N=Nc1cccc(O)c1 (configuration not stated) | – | inconclusive [inhibitor, partial curve] |
| COc1ccc(Cl)cc1S(=O)(=O)N1CCN(C(=O)c2ccco2)CC1 | – | inconclusive [inhibitor, partial curve, poor fit] |
| O=C1C2CC=C(Cl)CC2C(=O)N1CC1OCCc2ccccc21 (configuration not stated) | – | inconclusive [inhibitor, single point] |
| Cc1ccc(N(CCCCN2C(=O)c3ccccc3C2=O)C(=O)c2ccc(Cl)s2)cc1 | inactive: 4.41% | – |
| O=C(CSc1nnnn1-c1ccc(F)cc1)NCc1cccs1 | inactive: -1.96% | – |
| CCOC(=O)c1sc2nc(CC(=O)OC)nc(N(C)CCc3ccccn3)c2c1C | – | inconclusive [inhibitor, single point] |
| COC(=O)c1cc2nc(-c3ccc(OC)cc3)cc(C(F)(F)F)n2n1 | – | inconclusive [inhibitor, full curve] |
| COC(=O)Cc1n[nH]c(=O)c2ccccc12 | inactive: 0.16% | – |
| Cc1cccc(-c2noc(CN(C(=O)C(c3ccccc3)c3ccccc3)C(C)C)n2)c1 | inactive: 6.01% | – |
| CC(=O)N[C@H](Cc1ccc(O)cc1)C(=O)O | inactive: -6.52% [at 13.5 µM] | – |
| CC(=O)c1c(C)[nH]c(C(=O)OCC(=O)Nc2cc(S(=O)(=O)N3CCCC3)ccc2Cl)c1C | inactive: 9.41% | – |
| Clc1ccc(-c2nnc(-c3ccccc3)o2)c(Cl)c1 | – | active: 31.6 µM |
| CCn1nc([N+](=O)[O-])c(C(C#N)c2nc3cc(C(F)(F)F)ccc3s2)c(Cl)c1=O (configuration not stated) | – | active: 0.398 µM |

| Structure (SMILES) | activity, negative = inhibition | Potency |
| --- | --- | --- |
| Cc1c(C(=O)c2no[n+]([O-])c2C(=O)c2cnn(C)c2C)cnn1C | – | active: 0.891 µM |
| O=C(N/C(=C/c1cccc([N+](=O)[O-])c1)C(=O)N1CCCCCC1)c1cccs1 | – | inconclusive [inhibitor, partial curve] |
| COc1ccc(C(NC(C)=O)c2c(O)ccc3ccccc23)cc1OC (configuration not stated) | – | inconclusive [inhibitor, partial curve] |
| COc1ccc2nc(SCC(=O)N3CCCCC3)c(C#N)cc2c1 | – | inconclusive [inhibitor, single point] |
| O=C1C=CC(=O)N1CCCCCCN1C(=O)C=CC1=O | – | active: 0.224 µM |
| c1ccc(-c2nc(-c3cccc4ccccc34)c(Nc3ccc4ccccc4c3)o2)cc1 | – | inconclusive [inhibitor, single point] |
| O=C(COc1cccc2ccccc12)N/N=C/c1ccc(Sc2nc3ccccc3s2)o1 | – | inconclusive [inhibitor, single point] |
| CN(C)c1ccc(/C=N\NC(=S)SCN2C(=O)C3CCC(C)(C2=O)C3(C)C)cc1 (configuration not stated) | – | inconclusive [inhibitor, partial curve] |
| CC(C)OC(=O)c1cccc(-c2ccc(C=O)o2)c1 | – | active: 6.31 µM |
| CCNC(=O)CN(CCc1ccccc1)S(=O)(=O)c1ccc(OC)cc1 | – | inconclusive [inhibitor, partial curve] |
| O=C1CCCC2=C1C(c1cccs1)n1nc(SCc3ccccc3)nc1N2 (configuration not stated) | – | inconclusive [inhibitor, single point] |
| C=CCN1CCN(C(CCC)c2nnnn2Cc2ccco2)CC1 (configuration not stated) | – | inconclusive [inhibitor, single point] |
| FC(F)(F)c1ccccc1-c1nccc(NCCN2CCOCC2)n1 | inactive: 14.9% | – |
| COc1cccc(Nc2ncc3ncc(=O)n(CCc4ccccc4)c3n2)c1 | inactive: 8.61% | – |
| COc1ccc(/C=C(\C#N)C(=O)OCC(=O)NC(=O)NCCC(C)C)cc1 | – | inconclusive [inhibitor, single point] |
| CCOC(=O)C1CCCN(c2nnnn2-c2ccccc2)C1 (configuration not stated) | – | active: 7.08 µM |
| CC(=O)OC[C@@H]1O[C@H](CCON=C(C)C)C=C[C@@H]1OC(C)=O | inactive: 2.94% [at 13.5 µM] | – |
| O=C(CCn1c(=O)[nH]c2ccsc2c1=O)N(CCc1ccccc1)Cc1ccccc1 | – | inconclusive [inhibitor, single point] |
| CCCN1C(=O)/C(=C/c2ccc(OCC(=O)OCC)cc2)NC1=S | – | active: 1 µM |
| Nc1cc(=O)[nH]c(SCC(=O)N2CCN(S(=O)(=O)c3ccc4ccccc4c3)CC2)n1 | – | inconclusive [inhibitor, partial curve] |
| COCCN(CCOC)C(=S)Nc1ccccc1Cl | – | inconclusive [inhibitor, partial curve, poor fit] |
| O=C(/C=C/c1ccc2c(c1)OCO2)Nc1c(C(=O)O)[nH]c2ccccc12 | – | inconclusive [inhibitor, single point] |
| Cc1ccccc1N1C(=O)C(Oc2ccc(Cl)cc2)C1CNCC1CCCO1 (configuration not stated) | – | inconclusive [inhibitor, single point] |

Reference: PubChem BioAssay AID1030 (National Center for Advancing Translational Sciences (NCATS), 2008)
